# In PubChem BioAssay (Tox21):
# Inconclusive means that the source gave no clear call. Such entries were picked first, then a sample of the others. For some of these results: Potencies beside an inconclusive call are fits to weak or partial responses and may not hold up. Calls of active or inactive are those of the source. Unless noted, calls follow the shape of the dose curve; as a rule, active = well fitted curve in the direction sought with a large enough effect in the repeat runs; inconclusive = weak or mixed curves; inactive = no such curve, though single readings can be large; an effect the other way counts as inactive or inconclusive.
# Key:
# [1] = qHTS assay for small molecule agonists of the antioxidant response element (ARE) signaling pathway (AID 743202; active = well fitted activation curve with a large enough effect in the signal ratio in the repeat runs, not every such curve was filed as active; inconclusive = weak or mixed curves, or effect the other way; inactive = no such curve, though single readings can be large or run the other way; the % refers to the signal ratio); details: HepG2 ARE-bla reporter, beta-lactamase FRET, 16 h; activation: at 73.3 µM (top of the series) unless noted
# Procedure, shortened: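 Following a 16 h, 37 C exposure of reporter HepG2 cells (ARE-driven beta-lactamase, 2,000 cells/well) to compounds, FRET substrate was applied for 2 h at room temperature and fluorescence intensity recorded.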
# [2] = qHTS assay to identify small molecule antagonists of the vitamin D receptor (VDR) signaling pathway - cell viability counter screen (AID 743225); details: VDR-bla HEK293T viability, CellTiter-Glo luminescence, 16 h; viability change, negative = cytotoxic: at 61 µM (top of the series) unless noted; also: nearly all actives have a fitted effect of over 50% in size; also: potency is read from the fitted curve at half-maximal effect
# Procedure, shortened: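 VDR-UAS-bla HEK 293T cells were plated and incubated 4 h at 37C, then dosed with compound plus 3 nM (final) 1-alpha,25-dihydroxyvitamin D3 for 16 h. After the 2 h beta-lactamase read, viability in the same wells was read as CellTiter-Glo luminescence after 30 min at room temperature.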
# [3] = target: Nuclear receptor ROR-gamma (Homo sapiens) (UniProt P51449); assay: qHTS assay to identify small molecule antagonists of the retinoid-related orphan receptor gamma (ROR-gamma) signaling pathway (AID 1159521; also: nearly all actives have a fitted effect of over 50% in size; also: potency is read from the fitted curve at half-maximal effect;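 as to activity change, negative = inhibition: CHO cells with doxycycline inducible ROR-gamma driving an RORE luciferase reporter; top concentration of the series differs between compounds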)
# Procedure, shortened: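 Tet-on ROR-gamma CHO cells with ROR response element-luciferase reporter; compounds added 2 hr before 1 uM doxycycline induction, then 16 hr at 37 C. Antagonism scored as decreased ONE-Glo luminescence.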
# [4] = target: Vitamin D3 receptor (Homo sapiens) (UniProt P11473); assay: qHTS assay to identify small molecule antagonists of the vitamin D receptor (VDR) signaling pathway (AID 743223; active = well fitted inhibition curve with a large enough effect in the signal ratio in the repeat runs, not every such curve was filed as active; inconclusive = weak or mixed curves, or effect the other way; inactive = no such curve, though single readings can be large or run the other way; the % refers to the signal ratio; also: potency is read from the fitted curve at half-maximal effect); details: VDR-UAS-bla HEK293T, beta-lactamase FRET ratio, 16 h; activity change, negative = inhibition: at 61 µM (top of the series) unless noted
# Chain of UniProt P11473 (P11473 whole entry, looked up): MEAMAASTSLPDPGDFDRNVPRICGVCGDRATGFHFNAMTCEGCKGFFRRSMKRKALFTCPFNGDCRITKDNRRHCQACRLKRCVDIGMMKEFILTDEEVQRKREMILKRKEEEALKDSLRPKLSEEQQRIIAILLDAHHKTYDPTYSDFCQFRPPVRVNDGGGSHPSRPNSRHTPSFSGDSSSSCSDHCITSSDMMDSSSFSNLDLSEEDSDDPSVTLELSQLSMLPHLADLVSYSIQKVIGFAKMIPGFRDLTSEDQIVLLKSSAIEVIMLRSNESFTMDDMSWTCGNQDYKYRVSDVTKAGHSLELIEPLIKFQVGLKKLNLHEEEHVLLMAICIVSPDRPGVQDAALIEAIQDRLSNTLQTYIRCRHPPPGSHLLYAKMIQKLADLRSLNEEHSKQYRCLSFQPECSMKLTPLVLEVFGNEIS
# Procedure, shortened: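 VDR-bla cells were treated with compound plus 3 nM final 1alpha,25-dihydroxyvitamin D3 for 16 h at 37C. Beta-lactamase reporter read by B/G FRET substrate fluorescence after 2 h at room temperature. qHTS format.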
# [5] = qHTS assay for small molecule agonists of the antioxidant response element (ARE) signaling pathway - cell viability counter screen (AID 743203; calls by dose curve; also: nearly all actives have a fitted effect of over 55% in size; also: potency is read from the fitted curve at half-maximal effect); details: ARE-bla HepG2 viability, CellTiter-Glo luminescence, 16 h; viability change, negative = cytotoxic: at 73.3 µM (top of the series)
# Procedure, shortened: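 Measured in the same wells as the beta-lactamase ARE reporter, this read-out is CellTiter-Glo luminescence from HepG2 ARE-bla cells given compounds for 16 hrs.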
# [6] = target: Bile acid receptor (Homo sapiens) (UniProt Q96RI1); assay: qHTS assay to identify small molecule agonists of the farnesoid-X-receptor (FXR) signaling pathway (AID 743220; active = well fitted activation curve with a large enough effect in the signal ratio in the repeat runs, not every such curve was filed as active; inconclusive = weak or mixed curves, or effect the other way; the % refers to the signal ratio); details: HEK293T FXR-UAS-bla, beta-lactamase FRET ratio, 16 h; activation: at 62.6 µM (top of the series)
# Chain of UniProt Q96RI1 (Q96RI1 whole entry, looked up): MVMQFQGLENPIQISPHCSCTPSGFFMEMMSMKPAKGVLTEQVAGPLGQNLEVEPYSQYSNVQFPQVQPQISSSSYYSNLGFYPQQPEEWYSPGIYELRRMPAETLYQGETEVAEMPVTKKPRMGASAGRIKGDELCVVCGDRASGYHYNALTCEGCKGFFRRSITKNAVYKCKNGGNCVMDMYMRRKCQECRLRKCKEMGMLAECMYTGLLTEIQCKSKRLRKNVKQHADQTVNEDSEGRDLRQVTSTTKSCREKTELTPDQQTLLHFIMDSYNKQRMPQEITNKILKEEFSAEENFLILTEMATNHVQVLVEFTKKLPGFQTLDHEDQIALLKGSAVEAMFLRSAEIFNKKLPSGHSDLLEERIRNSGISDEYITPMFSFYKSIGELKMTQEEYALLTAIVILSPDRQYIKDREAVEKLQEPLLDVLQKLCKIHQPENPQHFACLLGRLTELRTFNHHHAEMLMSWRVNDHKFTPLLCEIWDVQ
# Procedure, shortened: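 FXR-UAS-bla HEK 293T cells carrying a UAS-driven beta-lactamase reporter were plated for 5 h at 37C/5% CO2, then exposed to DMSO-dissolved Tox21 10K compounds for 16 h at 37C. A LiveBLAzer B/G FRET substrate was loaded for 2 h at room temperature before fluorescence reading.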
# [7] = qHTS assay for small molecule activators of the heat shock response signaling pathway - cell viability counter screen (AID 743209); details: HSE-bla HeLa viability, CellTiter-Glo luminescence, 5 h; activity change, negative = cytotoxicity: at 62.6 µM (top of the series); also: nearly all actives have a fitted effect of over 50% in size; also: potency is read from the fitted curve at half-maximal effect
# Procedure, shortened: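 Same-well multiplex: after 2.5 h room-temperature incubation with LiveBLAzer B/G substrate and fluorescence reading, CellTiter-Glo reagent was added to HSE-bla HeLa cells that had received compound for 5 h at 37 C; luminescence read after 30 min.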
# [8] = target: Peroxisome proliferator-activated receptor delta (Homo sapiens) (UniProt Q03181); assay: qHTS assay to identify small molecule antagonists of the peroxisome proliferator-activated receptor delta (PPARd) signaling pathway (AID 743215; active = well fitted inhibition curve with a large enough effect in the signal ratio in the repeat runs, not every such curve was filed as active; inconclusive = weak or mixed curves, or effect the other way; inactive = no such curve, though single readings can be large or run the other way; the % refers to the signal ratio;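 also: cells stimulated with agonist L165041 at 300 nM final during compound exposure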); details: HEK293H PPARd-UAS-bla, beta-lactamase FRET ratio, antagonist, 17 h; ratio activity, negative = inhibition: at 62 µM (top of the series) unless noted
# Chain of UniProt Q03181 (Q03181 whole entry, looked up): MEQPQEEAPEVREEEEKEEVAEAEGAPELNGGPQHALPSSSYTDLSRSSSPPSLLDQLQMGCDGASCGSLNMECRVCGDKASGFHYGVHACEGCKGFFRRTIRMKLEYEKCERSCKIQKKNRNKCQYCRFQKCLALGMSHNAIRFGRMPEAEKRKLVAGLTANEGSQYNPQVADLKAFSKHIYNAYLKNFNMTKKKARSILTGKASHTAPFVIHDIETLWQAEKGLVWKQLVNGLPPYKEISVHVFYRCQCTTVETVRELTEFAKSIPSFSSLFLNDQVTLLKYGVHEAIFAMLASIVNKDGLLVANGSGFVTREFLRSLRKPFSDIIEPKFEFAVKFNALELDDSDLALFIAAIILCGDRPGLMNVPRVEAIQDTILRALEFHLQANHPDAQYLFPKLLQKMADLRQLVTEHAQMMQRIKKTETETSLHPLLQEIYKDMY
# Procedure, shortened: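 Fluorescence from cleaved LiveBLAzer B/G FRET substrate (2 h, room temperature) reports PPARd-driven beta-lactamase in HEK293H UAS-bla cells. Cells had been treated 17 h at 37 C with compound plus 300 nM final L165041.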
# [9] = qHTS assay to identify small molecule agonists of the peroxisome proliferator-activated receptor delta (PPARd) signaling pathway - cell viability counter screen (AID 743211); details: PPARd-bla HEK293H viability, CellTiter-Glo luminescence, 17 h; activity change, negative = cytotoxicity: at 62.6 µM (top of the series); also: nearly all actives have a fitted effect of over 55% in size; also: potency is read from the fitted curve at half-maximal effect
# Procedure, shortened: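 PPARd-bla HEK293H cells (3000/well) were pre-incubated 5 h at 37 C, then exposed to compound for 17 h at 37 C. After 2 h with LiveBLAzer substrate, CellTiter-Glo was added to the same wells; luminescence read after 30 min at room temperature.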
# [10] = target: Vitamin D3 receptor (Homo sapiens) (UniProt P11473); assay: qHTS assay to identify small molecule agonists of the vitamin D receptor (VDR) signaling pathway (AID 743222; calls by dose curve); details: HEK293T VDR-UAS-bla, beta-lactamase FRET ratio, 16 h; activation: at 63.5 µM (top of the series) unless noted
# Procedure, shortened: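 Following 4 h attachment at 37C, VDR-bla cells (2,000 per well) received DMSO-dissolved compounds or controls. After 16 h incubation, LiveBLAzer B/G FRET substrate was added and fluorescence read 2 h later at room temperature.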
# [11] = target: Peroxisome proliferator-activated receptor delta (Homo sapiens) (UniProt Q03181); assay: qHTS assay to identify small molecule agonists of the peroxisome proliferator-activated receptor delta (PPARd) signaling pathway (AID 743212; calls by dose curve;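 also: HEK293H cells with PPARd UAS beta-lactamase reporter GeneBLAzer system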); details: HEK293H PPARd-UAS-bla, beta-lactamase FRET ratio, 17 h; activation: at 62.6 µM (top of the series) unless noted
# Procedure, shortened: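 Beta-lactamase reporter read by fluorescence (LiveBLAzer B/G FRET, 2 h, room temperature). Test agents, in DMSO, incubated at 37 C with PPARd-bla HEK293H cells.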
# [12] = qHTS assay to identify small molecule agonists of the vitamin D receptor (VDR) signaling pathway - cell viability counter screen (AID 743224); details: VDR-bla HEK293T viability, CellTiter-Glo luminescence, 16 h; activity change, negative = cytotoxicity: at 62.6 µM (top of the series); also: nearly all actives have a fitted effect of over 50% in size
# Procedure, shortened: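 In parallel with the bla FRET readout, cytotoxicity toward VDR-bla cells after 16 h compound exposure was assessed by CellTiter-Glo, with luminescence recorded after a 30 min room-temperature incubation.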
# % is scaled to controls: 0 for no effect and ±100 for the full control effect; tags tell the direction and shape of the fitted curve or compound fluorescence and quenching.
smiles,measurement,setting,value
C/C(=C(\CCOP(=O)(O)O)SC(=O)c1ccccc1)N(C=O)Cc1cnc(C)nc1N,activation,[1],inactive: 14.1% [at 8.36 µM]
same,"viability change, negative = cytotoxic",[2],inactive: 2.62% [at 6.95 µM]
same,Potency,[3],"inconclusive: 1.68 µM [inhibitor, single point]"
C1CSCCS1,Potency,[1],inactive
same,Potency,[4],"inconclusive: 61.2 µM [rising, partial curve, poor fit]"
same,Potency,[2],inconclusive: 21.7 µM [cytotoxic]
same,Potency,[3],"inconclusive: 3.04 µM [inhibitor, partial curve, poor fit]"
Nc1c(CC(=O)O)cccc1C(=O)c1ccc(Br)cc1,Potency,[5],"inconclusive: 0.168 µM [cytotoxic, partial curve, poor fit]"
same,Potency,[6],inactive
same,Potency,[3],"inconclusive: 29.8 µM [inhibitor, single point]"
CCCCCCCC/C=C\CCCCCCCC(=O)OCCCC,Potency,[7],inactive
same,Potency,[8],inactive
same,"activity change, negative = inhibition",[4],inconclusive: -30.3% [at 28.5 µM]
same,"activity change, negative = inhibition",[3],inactive: 12% [at 19 µM]
CCN1CCN(c2cc3c(cc2F)c(=O)c(C(=O)O)cn3C2CC2)CC1,Potency,[9],"inconclusive: 2.66 µM [cytotoxic, full curve, poor fit]"
same,Potency,[10],inactive
same,Potency,[3],inactive
COC(=O)N[C@H](C(=O)N[C@@H](Cc1ccccc1)[C@@H](O)CN(Cc1ccc(-c2ccccn2)cc1)NC(=O)[C@@H](NC(=O)OC)C(C)(C)C)C(C)(C)C,activation,[1],inconclusive: 12.6%
same,Potency,[4],inactive
same,Potency,[2],inactive
same,Potency,[3],"inconclusive: 0.298 µM [inhibitor, single point]"
CN1CCN(CC(=O)N2c3ccccc3C(=O)Nc3cccnc32)CC1,Potency,[7],"inconclusive: 0.0668 µM [cytotoxic, full curve]"
same,activation,[11],inactive: -1.15% [at 5.95 µM]
same,"viability change, negative = cytotoxic",[2],inactive: -0.964% [at 6.95 µM]
same,"activity change, negative = inhibition",[3],inactive: 14.7% [at 8.39 µM]
OCC(O)c1ccccc1 (configuration not stated),Potency,[5],inactive
same,Potency,[8],inactive
same,Potency,[4],"inconclusive: 2.75 µM [rising, partial curve, poor fit]"
same,Potency,[2],"inconclusive: 6.92 µM [cytotoxic, partial curve, poor fit]"
same,Potency,[3],inactive
CC(C)CO,Potency,[9],inactive
same,Potency,[4],"inconclusive: 70.5 µM [activator, single point]"
same,Potency,[12],inactive
same,Potency,[3],inactive
CCN1CN(CC)CN(CC)C1,Potency,[9],"inconclusive: 21.1 µM [cytotoxic, partial curve, poor fit]"
same,Potency,[2],inactive
same,Potency,[3],inactive
